Measured values: the supplement of paper PMC8728848
This is one part of the list.

Columns and labels:
Experiment in all cases: glycan array binding signal (z-score within array); higher = stronger binding
Settings in all cases: glycan notation: IUPAC condensed, linker removed
[1] = biological target: GlcNAc(b1-6)Gal(b1-4)GlcNAc
Outline: (§1)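 The binding signal is a Z-score computed within each array. Data were drawn from 3228 arrays in the Consortium for Functional Glycomics database, restricted to those with a known protein sequence. Scores were averaged over arrays of the same protein sequence at different concentrations or buffers, and over linkers, and negative values can be taken as non-binding.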

GlcNAc(b1-6)GalNAc = biological target: GlcNAc(b1-6)GalNAc
Outline: as §1

GlcNAc3Prop(b1-4)GlcNAc = biological target: GlcNAc3Prop(b1-4)GlcNAc
Outline: as §1

[2] = biological target: GlcNAc6S(b1-3)Gal(b1-4)GlcNAc
Outline: as §1

Kdn(a2-3)Gal(b1-3)GalNAc = biological target: Kdn(a2-3)Gal(b1-3)GalNAc
Outline: as §1

Kdn(a2-3)Gal(b1-3)GlcNAc = biological target: Kdn(a2-3)Gal(b1-3)GlcNAc
Outline: as §1

Kdn(a2-3)Gal(b1-4)Glc = biological target: Kdn(a2-3)Gal(b1-4)Glc
Outline: as §1

Kdn(a2-3)Gal(b1-4)GlcNAc = biological target: Kdn(a2-3)Gal(b1-4)GlcNAc
Outline: as §1

[3] = biological target: Kdn(a2-3)Gal(b1-4)[Fuc(a1-3)]GlcNAc
Outline: as §1

Kdn(a2-6)Gal(b1-4)GlcNAc = biological target: Kdn(a2-6)Gal(b1-4)GlcNAc
Outline: as §1

[4] = biological target: Man(a1-2)Man(a1-2)Man(a1-3)Man
Outline: as §1

[5] = biological target: Man(a1-2)Man(a1-2)Man(a1-6)[Man(a1-3)]Man
Outline: as §1

Man(a1-2)Man(a1-3)Man = biological target: Man(a1-2)Man(a1-3)Man
Outline: as §1

[6] = biological target: Man(a1-2)Man(a1-3)[Man(a1-2)Man(a1-6)]Man
Outline: as §1

[7] = biological target: Man(a1-2)Man(a1-3)[Man(a1-2)Man(a1-6)]Man(a1-6)[Man(a1-2)Man(a1-2)Man(a1-3)]Man
Outline: as §1

[8] = biological target: Man(a1-2)Man(a1-3)[Man(a1-2)Man(a1-6)]Man(a1-6)[Man(a1-2)Man(a1-2)Man(a1-3)]Man(b1-4)GlcNAc(b1-4)GlcNAc
Outline: as §1

[9] = biological target: Man(a1-2)Man(a1-3)[Man(a1-6)]Man(a1-6)[Man(a1-2)Man(a1-3)]Man(b1-4)GlcNAc(b1-4)GlcNAc
Outline: as §1

[10] = biological target: Man(a1-2)Man(a1-6)[Man(a1-3)]Man(a1-6)[Man(a1-2)Man(a1-2)Man(a1-3)]Man
Outline: as §1

[11] = biological target: Man(a1-2)Man(a1-6)[Man(a1-3)]Man(a1-6)[Man(a1-2)Man(a1-2)Man(a1-3)]Man(b1-4)GlcNAc(b1-4)GlcNAc
Outline: as §1

Man(a1-3)[Man(a1-6)]Man = biological target: Man(a1-3)[Man(a1-6)]Man
Outline: as §1

[12] = biological target: Man(a1-3)[Man(a1-6)]Man(a1-6)[Man(a1-2)Man(a1-3)]Man(b1-4)GlcNAc(b1-4)GlcNAc
Outline: as §1

[13] = biological target: Man(a1-3)[Man(a1-6)]Man(a1-6)[Man(a1-3)]Man
Outline: as §1

[14] = biological target: Man(a1-3)[Man(a1-6)]Man(a1-6)[Man(a1-3)]Man(b1-4)GlcNAc(b1-4)GlcNAc
Outline: as §1

[15] = biological target: Man(a1-3)[Man(a1-6)]Man(b1-4)GlcNAc(b1-4)GlcNAc
Outline: as §1

Man(a1-6)Man = biological target: Man(a1-6)Man
Outline: as §1

Man(b1-4)GlcNAc = biological target: Man(b1-4)GlcNAc
Outline: as §1

Neu5Ac(a2-3)Gal = biological target: Neu5Ac(a2-3)Gal
Outline: as §1

[16] = biological target: Neu5Ac(a2-3)Gal(b1-3)GalNAc
Outline: as §1

[17] = biological target: Neu5Ac(a2-3)Gal(b1-3)GalNAc(b1-3)Gal(a1-4)Gal(b1-4)Glc
Outline: as §1

[18] = biological target: Neu5Ac(a2-3)Gal(b1-3)GalNAc(b1-4)[Neu5Ac(a2-3)]Gal(b1-4)Glc
Outline: as §1

B1: CwpV (Clostridium difficile), B6EFG6 (protein)
chain: MKIPKKIAAMLTVTMIAGSSTAGIASAQTVATNLTGQERYETAVKISQDGWKNADEVVIVNDSSIADALSATPFAKAKNAPILLTSKDKLNDKTKAEIQRLKAKKVYLIGGTSVLSTNIEKEIKDLKISFERISGAERYQTSLELAKKLDAISDVKKIAVVNGEKGLADAVSVGAPAAQNNMPVILADSKNGTAVADKFIKDAGITQSYVVGGESSISEAVKNKLPNSTRLGGTDRNDTNAKVIKEFYKKTDLKNAYVTKDGMNKQDQLIDALAVGVLGAKNQSPVVLVGKNLSASQKSLVNSKSFDKITKVGGNGNETAFNEMKSLQEVKTVEAKTISELKSAIDKATANDVINFKPTSEVKEAFTIQTDKAVTVNLNGTYTKTVTINMPNGDVNNYAKVDDVVIDDVKDGTFVNYGKITNLKVNDKNGAKIENNSKGEIGSLTVASGASQVKVTNGGKITTVTNNSKGTTIDNKGTISSVKGDNSPTISGNSPSSNSSGGSSSSGGSSGGSSGGSSSSKVGQIKFSATDKQIKMASGDKTVDPSDNTYILKLTNGTVKDGDVKANVKVAGLPSGLDYTAVGNRSANTITITVSGTTSQSIQNDLNNVSVLVKAGAVSGTGATDSIANTTFEIKKYVAAPAVGQLTFDATDKQIKMASGDKTVDPSDDTYVLTLTKGTAKDGDIKANVEVTGLPSGLDYTAEGDSSANTITIPVSGTASPAVQTDLDNVSVLVKAGAVSETTATDSAANATFEVKKYVAPAVGQLTFDATDKQIKMASGDKTVDPSDDTYVLTLTKGTAKDGDIKANVEVTGLPSGLDYTAEGDSSANTITITVSGTASQAVQTDLDNVSVLVKAGAVSETTATDSAANATFEVKKYVAPAIGQLTFDATDKQIKMASGDKTVDPSDDTYVLTLTKGTAKDGDIKANVEVTGLPSGLDYTAEGDSSANTITITVSGTASQAVQTDLDNVSVLVKAGAVSETTATDSAANATFEVKKHASDPISTIGKISSGLSSLFNILK
glycan array binding signal (z-score) [1]: -0.281 | glycan array binding signal (z-score) (GlcNAc(b1-6)GalNAc): -0.262 | glycan array binding signal (z-score) (GlcNAc3Prop(b1-4)GlcNAc): -0.262 | glycan array binding signal (z-score) [2]: 0.75 | glycan array binding signal (z-score) (Kdn(a2-3)Gal(b1-3)GalNAc): 0.224 | glycan array binding signal (z-score) (Kdn(a2-3)Gal(b1-3)GlcNAc): -0.065 | glycan array binding signal (z-score) (Kdn(a2-3)Gal(b1-4)Glc): -0.262 | glycan array binding signal (z-score) (Kdn(a2-3)Gal(b1-4)GlcNAc): -0.23 | glycan array binding signal (z-score) [3]: 0.153 | glycan array binding signal (z-score) (Kdn(a2-6)Gal(b1-4)GlcNAc): -0.162 | glycan array binding signal (z-score) [4]: 0.915 | glycan array binding signal (z-score) [5]: -0.062 | glycan array binding signal (z-score) (Man(a1-2)Man(a1-3)Man): -0.105 | glycan array binding signal (z-score) [6]: -0.273 | glycan array binding signal (z-score) [7]: -0.28 | glycan array binding signal (z-score) [8]: -0.294 | glycan array binding signal (z-score) [9]: 0.121 | glycan array binding signal (z-score) [10]: -0.258 | glycan array binding signal (z-score) [11]: -0.037 | glycan array binding signal (z-score) (Man(a1-3)[Man(a1-6)]Man): -0.329 | glycan array binding signal (z-score) [12]: -0.301 | glycan array binding signal (z-score) [13]: -0.348 | glycan array binding signal (z-score) [14]: -0.272 | glycan array binding signal (z-score) [15]: -0.29 | glycan array binding signal (z-score) (Man(a1-6)Man): -0.302 | glycan array binding signal (z-score) (Man(b1-4)GlcNAc): -0.211 | glycan array binding signal (z-score) (Neu5Ac(a2-3)Gal): -0.26 | glycan array binding signal (z-score) [16]: -0.083 | glycan array binding signal (z-score) [17]: 11.2 | glycan array binding signal (z-score) [18]: -0.101
